According to PubChem BioAssay AID504333 (National Center for Advancing Translational Sciences (NCATS), 2011):
Hit rate of the full screen: of about 360,000 compounds, about 16,000 (4.4%) were called active. The shares of active, inactive and inconclusive entries below differ from those in the screen. Calls follow the shape of the dose curve; as a rule, active = well fitted inhibition curve with a large enough effect; inconclusive = small, poorly fitted or top-dose-only effect; inactive = no such curve, though single readings can be large or run the other way. Potencies beside an inconclusive call are fits to weak or partial responses and may not hold up.

molecular target: Bromodomain adjacent to zinc finger domain protein 2B (Homo sapiens) (UniProt Q9UIF8); test: qHTS Assay for Inhibitors of BAZ2B; details: AlphaScreen BAZ2B-H3K14Ac peptide displacement; activity change, negative = inhibition: at 114 µM (top of the series) unless noted; also: nearly all actives have a fitted effect of over 60% in size
In short: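 AlphaScreen luminescence quantifies BAZ2B engagement of H3K14Ac peptide; the protein and biotinylated peptide are both at 50 nM final, buffer PBS pH 7.4 with 0.01% Tween-20, all steps at room temperature.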
% is scaled to controls: 0 for no effect and ±100 for the full control effect; potency is read from the fitted curve at half-maximal effect; tags tell the direction and shape of the fitted curve.

Chain of UniProt Q9UIF8 (Q9UIF8 whole entry, looked up, the tested form may be a part): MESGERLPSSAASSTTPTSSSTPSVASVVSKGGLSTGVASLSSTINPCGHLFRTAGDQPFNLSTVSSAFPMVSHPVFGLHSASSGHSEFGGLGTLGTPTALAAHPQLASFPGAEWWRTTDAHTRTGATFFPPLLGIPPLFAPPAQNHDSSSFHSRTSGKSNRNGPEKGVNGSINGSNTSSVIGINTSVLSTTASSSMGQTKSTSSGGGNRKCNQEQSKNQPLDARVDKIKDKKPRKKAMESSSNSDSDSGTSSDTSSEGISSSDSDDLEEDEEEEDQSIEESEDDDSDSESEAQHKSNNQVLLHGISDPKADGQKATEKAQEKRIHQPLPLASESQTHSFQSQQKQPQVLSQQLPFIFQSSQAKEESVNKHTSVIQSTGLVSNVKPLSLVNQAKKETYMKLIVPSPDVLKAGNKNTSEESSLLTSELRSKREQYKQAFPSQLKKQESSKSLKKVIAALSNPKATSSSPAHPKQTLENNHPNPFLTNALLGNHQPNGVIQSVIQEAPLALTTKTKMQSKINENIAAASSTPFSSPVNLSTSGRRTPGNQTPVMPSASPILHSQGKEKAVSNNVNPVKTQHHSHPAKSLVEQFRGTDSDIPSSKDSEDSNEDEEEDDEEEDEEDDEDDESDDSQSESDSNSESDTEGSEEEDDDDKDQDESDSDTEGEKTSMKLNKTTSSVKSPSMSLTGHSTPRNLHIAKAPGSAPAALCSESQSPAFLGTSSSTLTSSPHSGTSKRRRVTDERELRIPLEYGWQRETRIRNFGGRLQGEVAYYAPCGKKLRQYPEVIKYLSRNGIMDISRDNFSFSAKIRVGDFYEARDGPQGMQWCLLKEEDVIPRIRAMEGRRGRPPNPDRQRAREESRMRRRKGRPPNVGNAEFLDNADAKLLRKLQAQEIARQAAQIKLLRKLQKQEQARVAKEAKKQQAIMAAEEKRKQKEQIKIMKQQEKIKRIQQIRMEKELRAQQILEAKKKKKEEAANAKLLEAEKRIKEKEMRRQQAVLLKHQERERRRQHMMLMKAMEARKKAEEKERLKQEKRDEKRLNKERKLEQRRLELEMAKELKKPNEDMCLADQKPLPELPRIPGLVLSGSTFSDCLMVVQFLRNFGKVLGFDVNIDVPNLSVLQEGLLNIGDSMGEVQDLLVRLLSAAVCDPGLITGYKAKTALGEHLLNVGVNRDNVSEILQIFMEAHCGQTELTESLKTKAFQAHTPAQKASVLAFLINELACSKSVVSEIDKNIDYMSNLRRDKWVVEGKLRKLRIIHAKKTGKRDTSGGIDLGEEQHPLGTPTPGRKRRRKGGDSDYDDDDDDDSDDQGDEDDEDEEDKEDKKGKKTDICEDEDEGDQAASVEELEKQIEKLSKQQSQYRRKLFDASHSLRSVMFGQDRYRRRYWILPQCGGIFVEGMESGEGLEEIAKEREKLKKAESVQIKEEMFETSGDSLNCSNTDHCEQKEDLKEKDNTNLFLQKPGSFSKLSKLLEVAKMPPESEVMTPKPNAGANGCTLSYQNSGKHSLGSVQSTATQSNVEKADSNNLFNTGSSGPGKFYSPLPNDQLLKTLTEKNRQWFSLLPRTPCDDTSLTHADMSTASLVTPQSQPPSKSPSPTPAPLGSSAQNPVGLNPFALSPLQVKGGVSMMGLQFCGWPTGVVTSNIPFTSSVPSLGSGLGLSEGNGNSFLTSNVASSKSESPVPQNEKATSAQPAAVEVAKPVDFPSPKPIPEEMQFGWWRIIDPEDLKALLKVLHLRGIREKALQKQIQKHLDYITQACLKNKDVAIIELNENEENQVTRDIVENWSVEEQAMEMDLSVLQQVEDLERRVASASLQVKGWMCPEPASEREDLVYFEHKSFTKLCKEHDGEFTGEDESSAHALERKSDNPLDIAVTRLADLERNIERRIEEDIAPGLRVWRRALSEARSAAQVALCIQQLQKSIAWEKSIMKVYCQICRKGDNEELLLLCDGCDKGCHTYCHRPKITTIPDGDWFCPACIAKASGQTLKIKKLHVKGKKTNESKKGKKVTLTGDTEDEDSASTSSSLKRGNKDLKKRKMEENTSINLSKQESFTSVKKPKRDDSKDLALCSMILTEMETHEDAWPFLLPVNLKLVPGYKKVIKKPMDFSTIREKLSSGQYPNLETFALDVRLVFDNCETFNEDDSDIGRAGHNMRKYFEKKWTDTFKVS

Row | SMILES | Potency | activity change, negative = inhibition
1 | Cc1ccccc1S(=O)(=O)Nc1nc2ccccc2nc1N1CCOCC1 | active: 56.2 µM | –
2 | COc1ccc(-n2c(O)c(/C=N/NS(=O)(=O)c3cc(C)ccc3C)c3ccccc3c2=O)cc1OC | active: 44.7 µM | –
3 | CC(C)(C)CC(=O)N1CCN(Cc2ccc3c(c2)OCO3)CC1 | – | inactive: -5.89%
4 | O=[N+]([O-])c1cccc(-c2nc(Oc3ccc(Cl)cc3)c3ccccc3n2)c1 | inconclusive: 79.4 µM [inhibitor, single point] | –
5 | Cc1ccc(CNC(=O)C23CN(Cc4ccccc4)CC2C(c2ccc([N+](=O)[O-])cc2)=NO3)cc1 (centres undefined) | inconclusive: 10 µM [inhibitor, partial curve, poor fit] | –
6 | COc1ccc(CC(=O)NCC(=O)N/N=C/c2c[nH]c3ccccc23)cc1 | – | inactive: -15.7%
7 | O=C(Nc1ccccc1Cl)c1ccc2nc(N3CCOCC3)sc2c1 | – | inactive: -5.13%
8 | COc1cc(C(=O)NNC(=O)c2ccco2)cc(OC)c1OC | – | inactive: 8.7%
9 | CCN(CC)C(=O)C1CCN(Cc2ccc(OCc3ccccc3)c(OC)c2)CC1 | active: 56.2 µM | –
10 | CS(=O)(=O)N1CCN(c2ccccc2NC(=S)NC(=O)c2cccs2)CC1 | inconclusive: 44.7 µM [inhibitor, partial curve] | –
11 | CCn1cc(C(=O)NN)c(=O)c2cc(F)c(NC3CCCCC3)cc21 | inconclusive: 70.8 µM [inhibitor, single point] | –
12 | Cc1cc(C(=O)NNC(=O)/C=C/c2ccco2)c(C)o1 | inconclusive: 89.1 µM [inhibitor, single point] | –
13 | CCCc1cc(C(=O)Nc2cc(Cl)ccc2O)no1 | – | inactive: 1.31%
14 | Cc1ccc(C(C)C)c(OCCNCc2ccccc2)c1 | inconclusive: 89.1 µM [inhibitor, single point] | –
15 | COc1ccc(N(CC(=O)Nc2cc(C(=O)O)ccc2C)S(=O)(=O)c2c(C)noc2C)cc1 | inconclusive: 89.1 µM [inhibitor, single point] | –
16 | Cc1cc(NC(=O)CCC(=O)N(Cc2ccco2)C2(C(=O)NC3CCCC3)CCCCC2)no1 | – | inactive: 2.09%
17 | CCC(C)[C@H](NC(=O)[C@@H]1Cc2ccccc2CN1)C(=O)Nc1ccc2c(c1)OCO2 (some centres undefined) | inconclusive: 79.4 µM [inhibitor, partial curve] | –
18 | Cc1ccc(OCC(=O)c2cc(C)n(Cc3ccco3)c2C)c([N+](=O)[O-])n1 | inconclusive: 50.1 µM [inhibitor, partial curve] | –
19 | COc1ccc(N2CCN(c3ncnc4scc(-c5ccc(C)cc5)c34)CC2)cc1 | active: 11.2 µM | –
20 | CC(C)C(=O)NNC(=O)c1cc2sccc2s1 | – | inactive: -3.45%
21 | Cc1cccc(Nc2c([N+](=O)[O-])cc(C(=O)N3CC(=O)Nc4ccccc43)cc2[N+](=O)[O-])c1 | inconclusive: 11.2 µM [inhibitor, full curve] | –
22 | C=CCN=C1NN=C(c2cc(C)n(CC=C)c2C)CS1 | inconclusive: 79.4 µM [inhibitor, single point] | –
23 | CC(=O)c1c(N2CCN(C)CC2)[nH]c(-c2ccccc2)nc1=S | inconclusive: 79.4 µM [inhibitor, single point] | –

Row | SMILES | Potency | activity change, negative = inhibition
24 | Cc1c(C)[n+](=O)c2c(n1[O-])C(Br)CCC2Br (centres undefined) | active: 79.4 µM | –
25 | CCOC(=O)C(=NC1CCS(=O)(=O)C1)NNc1ccc(Br)cc1 (centres undefined) | inconclusive: 79.4 µM [inhibitor, partial curve] | –
26 | O=C(C[n+]1cc(-c2ccc(Cl)cc2)n2c1CCC2)Nc1nc(-c2ccccc2)cs1 | inconclusive: 35.5 µM [inhibitor, partial curve] | –
27 | O=C(CC1CCCCC1)N1CCCC(c2nc(-c3ccc(S(=O)(=O)N4CCCC4)cc3)no2)C1 (centres undefined) | inconclusive: 70.8 µM [inhibitor, single point] | –
28 | COc1cc(/C=C/c2[nH]c(=O)[nH]c(=O)c2[N+](=O)[O-])ccc1OCCC(C)C | inconclusive: 70.8 µM [inhibitor, single point] | –
29 | O=C(O)c1ccc(Nc2nc3ccccc3nc2NS(=O)(=O)c2cccs2)cc1 | – | inactive: -9.55% [at 57.1 µM]
30 | COC(=O)c1c(Cc2ccccc2Cl)c[nH]c1C | inconclusive: 44.7 µM [inhibitor, partial curve] | –
31 | CNC(=O)CSc1nc2cccnc2n1C1CCCCC1 | inconclusive: 89.1 µM [inhibitor, single point] | –
32 | CCOc1ccccc1CN1CCC(O)CC1 | inconclusive: 89.1 µM [inhibitor, single point] | –
33 | CCOc1ccc(NC(=O)CN2CCN(CC(=O)Nc3cc(OC)cc(OC)c3)CC2)cc1 | – | inactive: 0.576%
34 | COc1cc2c(=O)n(CCC(=O)NCC3CCCO3)c(=O)n(CC(=O)Nc3ccc(C)c(C)c3)c2cc1OC (centres undefined) | inconclusive: 89.1 µM [inhibitor, single point] | –
35 | COC(=O)CNC(=O)CNC(=O)c1nn(-c2ccc(OC)c(Cl)c2)c(=O)c2ccccc12 | – | inactive: -1.08%
36 | NC(=S)NN=C1c2ccccc2-c2ccccc21 | inconclusive: 39.8 µM [inhibitor, partial curve] | –
37 | COc1cccc(OC)c1OCCCN1CCOCC1 | active: 50.1 µM | –
38 | Cc1ccc(C)c(Nc2ccc3nonc3c2[N+](=O)[O-])c1 | inconclusive: 39.8 µM [inhibitor, partial curve] | –
39 | Nn1cnnc1N/N=C\c1ccc(-c2ccccc2[N+](=O)[O-])o1 | inconclusive: 89.1 µM [inhibitor, single point] | –
40 | COc1ccc(OC)c(CCNC(=O)C(C)n2nc(C)c3c(C)n(-c4ccccc4)nc3c2=O)c1 (centres undefined) | – | inactive: -25.8%
41 | CCOC(=O)C(C)Sc1nnc(NC(=O)c2ccc3c(c2)OCO3)s1 (centres undefined) | inconclusive: 89.1 µM [inhibitor, single point] | –
42 | O=C(NCCc1c[nH]c2ccccc12)c1cccc(S(=O)(=O)Nc2ccccc2Cl)c1 | inconclusive: 28.2 µM [inhibitor, full curve, poor fit] | –
43 | CCc1ccc(NC(=S)N(CCN2CCCCC2)Cc2ccco2)cc1 | inconclusive: 100 µM [inhibitor, single point] | –
44 | O=C(Nc1nc2ccc(Oc3ccccc3)cc2s1)c1cc([N+](=O)[O-])ccc1N1CCOCC1 | inconclusive: 39.8 µM [inhibitor, full curve, poor fit] | –
45 | CC(C1CC2CCC1C2)n1c(-c2ccco2)n[nH]c1=S (centres undefined) | inconclusive: 39.8 µM [inhibitor, partial curve] | –
46 | CCOC(=O)C(=O)N1CCN(c2cc3c(cc2[N+](=O)[O-])n(C)c(=O)n3C)CC1 | active: 50.1 µM | –

Row | SMILES | Potency | activity change, negative = inhibition
47 | CC(=O)Oc1ccc(C(=O)Nc2ccc3c(c2)C(=O)N(CCC(=O)O)C3=O)cc1 | inconclusive: 35.5 µM [inhibitor, single point] | –
48 | CCOC(=O)COn1c(=O)c(-c2cccs2)[n+]([O-])c2ccccc21 | inconclusive: 56.2 µM [inhibitor, partial curve, poor fit] | –
49 | Cc1ccc(NC(=O)c2cc(S(=O)(=O)N3CCc4ccccc43)ccc2F)cc1Cl | – | inactive: -7.81%
50 | Cn1cccc1CC(=O)N/N=C/c1ccco1 | inconclusive: 89.1 µM [inhibitor, single point] | –
51 | COc1ccc(-c2n[nH]c(C)c2-c2ccccc2OC)c(O)c1 | inconclusive: 35.5 µM [inhibitor, partial curve] | –
52 | COc1ccc(F)c(-c2nc(CN3CCC(c4ccccc4)CC3)c(C)o2)c1 | inconclusive: 79.4 µM [inhibitor, partial curve] | –
53 | Cc1ccc2cc3c(N)c(C(=O)Nc4c(C)[nH]c(=O)[nH]c4=O)sc3nc2c1 | inconclusive: 79.4 µM [inhibitor, single point] | –
54 | Cc1cc(S(=O)(=O)Nc2ccc(-c3ccc(N4CCCCCC4)nn3)cc2)c(C)cc1Cl | inconclusive: 3.55 µM [inhibitor, partial curve, poor fit] | –
55 | O=C(O)CCC(=O)N(Cc1ccco1)c1nc(-c2ccccc2)cs1 | inconclusive: 56.2 µM [inhibitor, partial curve] | –
56 | CC1(C2CC2)NC(=O)N(CC(=O)N2CCN(S(=O)(=O)c3ccc(F)c(F)c3)CC2)C1=O (centres undefined) | – | inactive: 8.57%
57 | COc1ccc2c(CNCCc3ccco3)c(C(=O)O)n(Cc3ccccc3)c2c1 | inconclusive: 56.2 µM [inhibitor, partial curve] | –
58 | CC(C)(C)c1ccc(C(=O)O)c(C(=O)c2ccc(C(=O)O)cc2)c1 | inconclusive: 5.01 µM [inhibitor, full curve, poor fit] | –
59 | COc1ccc(-n2c(/C=C3\C(=O)N(C)c4ccccc43)nc3ccccc3c2=O)cc1 | inconclusive: 100 µM [inhibitor, single point] | –
60 | CC(=O)Nc1ccc(S(=O)(=O)NCCc2cc3c(C)ccc(C)c3[nH]c2=O)cc1 | – | inactive: -4.5%
61 | COc1ccc(NC(=O)CSc2nc3ccccc3n2Cc2cccc(OC)c2)cc1 | inconclusive: 89.1 µM [inhibitor, single point] | –
62 | CCOc1ccc(NC(=O)C2CCN(c3nnc(-n4c(C)ccc4C)s3)CC2)cc1 | – | inactive: -2.04%
63 | O=C(CCCc1ccccc1)Nc1ccc(S(=O)(=O)N2CCOCC2)cc1 | – | inactive: -16.8%
64 | CC(C)c1ccc(CNc2ccc(N3CCOCC3)cc2)cc1 | active: 12.6 µM | –
65 | COc1cc(C)c(S(=O)(=O)N2CCCC2)cc1C | – | inactive: -0.701%
66 | Fc1ccc(-c2csc3ncnc(Nc4ccc(N5CCOCC5)cc4)c23)cc1 | active: 39.8 µM | –
67 | Nc1nc(CSCc2ccccc2)nc(N2CCOCC2)n1 | inconclusive: 89.1 µM [inhibitor, single point] | –
68 | CCOc1ccccc1N1CCN(Cc2ccc(OC)c(OC)c2OC)CC1 | inconclusive: 89.1 µM [inhibitor, single point] | –
69 | CN(Cc1ccccc1)S(=O)(=O)c1ccc(NC(=O)C2CCCO2)cc1 (centres undefined) | inconclusive: 89.1 µM [inhibitor, single point] | –
